According to PubChem BioAssay (NCI):
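Briefly, cells in 96-well plates were exposed to five compound concentrations for 48 h, and endpoints were estimated by linear interpolation. Abbreviation: GI50, concentration required for 50% inhibition of growth.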 A number of entries come with more than one value. The other results are left out here. There may be further records. The tests behind the records often covered other concentration ranges, not given here; a value can be the end of its range.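 At the TGI there is no net growth.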

Key:
Experiment in all cases: growth of human tumour cells (NCI), 48 h
SW-620 colon = tested on: SW-620 colon
HCC-2998 colon = tested on: HCC-2998 colon
SN12C renal = tested on: SN12C renal
UACC-257 melanoma = tested on: UACC-257 melanoma
TK-10 renal = tested on: TK-10 renal
SF-295 CNS = tested on: SF-295 CNS
ACHN renal = tested on: ACHN renal
HL-60(TB) leukemia = tested on: HL-60(TB) leukemia
NCI-H522 lung = tested on: NCI-H522 lung
CCRF-CEM leukemia = tested on: CCRF-CEM leukemia
PC-3 prostate = tested on: PC-3 prostate
MDA-MB-231 breast = tested on: MDA-MB-231 breast
SNB-75 CNS = tested on: SNB-75 CNS
K-562 leukemia = tested on: K-562 leukemia
A549 NSCLC = tested on: A549 NSCLC
OVCAR-8 ovarian = tested on: OVCAR-8 ovarian
KM12 colon = tested on: KM12 colon
SK-MEL-28 melanoma = tested on: SK-MEL-28 melanoma
HCT-116 colon = tested on: HCT-116 colon
HS 578T breast = tested on: HS 578T breast
SF-268 CNS = tested on: SF-268 CNS
EKVX NSCLC = tested on: EKVX NSCLC
DU-145 prostate = tested on: DU-145 prostate
MOLT-4 leukemia = tested on: MOLT-4 leukemia
NCI-H23 lung = tested on: NCI-H23 lung
NCI-H460 lung = tested on: NCI-H460 lung
HOP-62 NSCLC = tested on: HOP-62 NSCLC
SK-MEL-5 melanoma = tested on: SK-MEL-5 melanoma
UO-31 renal = tested on: UO-31 renal
BT-549 breast = tested on: BT-549 breast
LOX IMVI melanoma = tested on: LOX IMVI melanoma
HCT-15 colon = tested on: HCT-15 colon
OVCAR-5 ovarian = tested on: OVCAR-5 ovarian
NCI-H226 lung = tested on: NCI-H226 lung
786-0 renal = tested on: 786-0 renal
U251 CNS = tested on: U251 CNS
HT29 colon = tested on: HT29 colon
IGROV1 ovarian = tested on: IGROV1 ovarian
M14 melanoma = tested on: M14 melanoma
OVCAR-4 ovarian = tested on: OVCAR-4 ovarian
HOP-92 NSCLC = tested on: HOP-92 NSCLC
SK-OV-3 ovarian = tested on: SK-OV-3 ovarian
SR leukemia = tested on: SR leukemia
OVCAR-3 ovarian = tested on: OVCAR-3 ovarian
XF 498 CNS = tested on: XF 498 CNS
COLO 205 colon = tested on: COLO 205 colon
HOP-18 NSCLC = tested on: HOP-18 NSCLC
UACC-62 melanoma = tested on: UACC-62 melanoma
RXF 393 renal = tested on: RXF 393 renal
MALME-3M melanoma = tested on: MALME-3M melanoma
DLD-1 colon = tested on: DLD-1 colon
M19-MEL melanoma = tested on: M19-MEL melanoma
KM20L2 colon = tested on: KM20L2 colon
SNB-78 CNS = tested on: SNB-78 CNS
SF-539 CNS = tested on: SF-539 CNS
LXFL 529 NSCLC = tested on: LXFL 529 NSCLC
SNB-19 CNS = tested on: SNB-19 CNS
A498 renal = tested on: A498 renal
NCI/ADR-RES ovarian = tested on: NCI/ADR-RES ovarian

## COC(=O)[C@@H](C)C[C@H](Cc1ccccc1)NC(=O)c1csc([C@@H](C[C@H](C(C)C)N(C)C(=O)[C@@H](NC(=O)[C@H]2CCCCN2C)c2ccc(F)cc2)OC(C)=O)n1
SW-620 colon
  GI50: 9.28 nM, 2.5 nM, 52.5 nM
HCC-2998 colon
  GI50: 25.6 nM, 2.5 nM, 1.8 µM
SN12C renal
  GI50: 40.7 nM, 2.5 nM, 127 nM
UACC-257 melanoma
  GI50: 262 nM and 35 µM
TK-10 renal
  GI50: 62.9 nM and 30.3 µM
SF-295 CNS
  GI50: 23 nM, 2.5 nM, 135 nM
ACHN renal
  GI50: 45.1 nM, 2.5 nM, 141 nM
HL-60(TB) leukemia
  TGI: 6.88 nM and 102 nM
NCI-H522 lung
  TGI: 167 nM and 13 µM
CCRF-CEM leukemia
  GI50: 28.7 nM, 2.5 nM, 52.4 nM
PC-3 prostate
  GI50: 19.4 nM, 2.5 nM, 46.1 nM
MDA-MB-231 breast
  GI50: 23.6 nM, 2.5 nM, 111 nM
  TGI: 322 nM and 15.2 µM
SNB-75 CNS
  GI50: 12.5 nM, 2.5 nM, 37.3 nM
K-562 leukemia
  GI50: 3.7 nM, 2.5 nM, 28.1 nM
A549 NSCLC
  GI50: 121 nM, 2.5 nM, 468 nM
OVCAR-8 ovarian
  GI50: 36.8 nM, 2.5 nM, 200 nM
KM12 colon
  GI50: 6.77 nM, 2.5 nM, 63.1 nM
SK-MEL-28 melanoma
  GI50: 46.4 nM and 527 nM
HCT-116 colon
  GI50: 21.7 nM, 2.5 nM, 38.8 nM
HS 578T breast
  GI50: 35.9 nM and 567 nM
SF-268 CNS
  GI50: 22.9 nM, 2.5 nM, 182 nM
EKVX NSCLC
  GI50: 39.6 nM, 2.5 nM, 627 nM
DU-145 prostate
  GI50: 6.63 nM, 2.5 nM, 37.3 nM
  TGI: 3.57 µM and > 100 µM
MOLT-4 leukemia
  GI50: 35.1 nM, 2.5 nM, 129 nM
NCI-H23 lung
  GI50: 33.4 nM, 2.5 nM, 308 nM
NCI-H460 lung
  GI50: 22.5 nM, 2.5 nM, 51.6 nM
HOP-62 NSCLC
  GI50: 35.5 nM, 2.5 nM, 88.7 nM
SK-MEL-5 melanoma
  TGI: 157 nM, 36.3 nM, 1.23 µM
UO-31 renal
  GI50: 343 nM, 2.5 nM, 530 nM
  TGI: 7.65 µM and > 100 µM
BT-549 breast
  GI50: 2.5 nM and 41.3 nM
LOX IMVI melanoma
  GI50: 18.2 nM, 2.5 nM, 52.7 nM
HCT-15 colon
  GI50: 47 nM, 2.5 nM, 289 nM
OVCAR-5 ovarian
  GI50: 101 nM, 2.5 nM, 654 nM
NCI-H226 lung
  GI50: 389 nM, 38.3 nM, 18.7 µM
  TGI: 8.44 µM and > 100 µM
786-0 renal
  GI50: 59.8 nM, 2.5 nM, 351 nM
U251 CNS
  GI50: 9.47 nM, 2.5 nM, 104 nM
HT29 colon
  GI50: 5.93 nM, 2.5 nM, 36.7 nM
  TGI: 3.07 µM and 35.5 µM
IGROV1 ovarian
  GI50: 5.6 nM, 2.5 nM, 38.7 nM
M14 melanoma
  GI50: 14.4 nM, 2.5 nM, 49.3 nM
  TGI: 75.4 nM, 1.35 µM, 937 nM
OVCAR-4 ovarian
  GI50: 120 nM, 546 nM, 1.74 µM
HOP-92 NSCLC
  GI50: 2.36 nM and 6.84 µM
  TGI: 323 nM and 63.4 µM
SK-OV-3 ovarian
  GI50: 48 nM, 2.5 nM, 154 nM

## C[N+]1(CCNP(=S)(NCC[N+]2(C)Cc3c(ccc4c3OCO4)C3C2c2cc4c(cc2C[C@@H]3O)OCO4)NCC[N+]2(C)Cc3c(ccc4c3OCO4)C3C2c2cc4c(cc2C[C@@H]3O)OCO4)Cc2c(ccc3c2OCO3)C2C1c1cc3c(cc1C[C@H]2O)OCO3 (stereo partly specified)
SR leukemia
  TGI: < 1.91 nM and 28.9 µM
OVCAR-3 ovarian
  TGI: < 1.91 nM and 7.17 µM
SW-620 colon
  TGI: < 1.91 nM and 6.16 µM
XF 498 CNS
  TGI: < 1.91 nM and 3.57 µM
HCC-2998 colon
  TGI: < 1.91 nM and 20.1 µM
SN12C renal
  TGI: < 1.91 nM and 10.5 µM
UACC-257 melanoma
  TGI: < 1.91 nM and 9.33 µM
TK-10 renal
  TGI: < 1.91 nM and 23.7 µM
SF-295 CNS
  TGI: < 1.91 nM and 39.9 µM
COLO 205 colon
  TGI: < 1.91 nM and 5.77 µM
ACHN renal
  TGI: < 1.91 nM and 11.9 µM
HL-60(TB) leukemia
  TGI: < 1.91 nM and > 383 µM
HOP-18 NSCLC
  TGI: < 1.91 nM and 94.4 µM
NCI-H522 lung
  TGI: < 1.91 nM and 16.1 µM
UACC-62 melanoma
  TGI: < 1.91 nM and 4.72 µM
RXF 393 renal
  TGI: < 1.91 nM and 7.35 µM
MALME-3M melanoma
  TGI: < 1.91 nM and 10.3 µM
SNB-75 CNS
  TGI: < 1.91 nM and 4.12 µM
K-562 leukemia
  TGI: < 1.91 nM and 18.5 µM
DLD-1 colon
  TGI: < 1.91 nM and 7.95 µM
M19-MEL melanoma
  TGI: < 1.91 nM and 7.23 µM
A549 NSCLC
  TGI: < 1.91 nM and 67.3 µM
KM12 colon
  TGI: < 1.91 nM and 6.49 µM
SK-MEL-28 melanoma
  TGI: < 1.91 nM and 8.97 µM
HCT-116 colon
  TGI: < 1.91 nM and 5.41 µM
KM20L2 colon
  TGI: < 1.91 nM and 8.91 µM
SF-268 CNS
  TGI: < 1.91 nM and > 383 µM
EKVX NSCLC
  TGI: < 1.91 nM and 96.7 µM
NCI-H23 lung
  TGI: < 1.91 nM and 7.63 µM
NCI-H460 lung
  TGI: < 1.91 nM and 2.61 µM
HOP-62 NSCLC
  TGI: < 1.91 nM and 39.3 µM
SK-MEL-5 melanoma
  TGI: < 1.91 nM and 6.58 µM
UO-31 renal
  TGI: < 1.91 nM and 14.9 µM
SNB-78 CNS
  TGI: < 1.91 nM and 12.1 µM
LOX IMVI melanoma
  TGI: < 1.91 nM and 6.81 µM
SF-539 CNS
  TGI: < 1.91 nM and 8.99 µM
786-0 renal
  TGI: < 1.91 nM and 11.3 µM
LXFL 529 NSCLC
  TGI: < 1.91 nM and 7.83 µM
U251 CNS
  TGI: < 1.91 nM and 6.87 µM
HT29 colon
  TGI: < 1.91 nM and 5.21 µM
SNB-19 CNS
  TGI: < 1.91 nM and 71.2 µM
IGROV1 ovarian
  TGI: < 1.91 nM and 16.7 µM
OVCAR-4 ovarian
  TGI: < 1.91 nM and 11.6 µM
HOP-92 NSCLC
  TGI: < 1.91 nM and 13.7 µM
A498 renal
  TGI: < 1.91 nM and 22 µM
SK-OV-3 ovarian
  TGI: < 1.91 nM and 26.2 µM

## COc1ccc2c(c1)C(=O)c1c-2n(CCCN=[N+]=[N-])c(=O)c2cc([N+](=O)[O-])ccc12
OVCAR-3 ovarian
  GI50: 155 nM and 15.2 µM
  TGI: 769 nM and 65.9 µM
UACC-257 melanoma
  GI50: 10.7 nM and 5.01 µM
COLO 205 colon
  GI50: 21.4 nM and 28.9 µM
PC-3 prostate
  GI50: 20.9 nM and 1.11 µM
A549 NSCLC
  GI50: < 1 nM and 1.09 µM
OVCAR-8 ovarian
  GI50: < 1 nM and 1.26 µM
HCT-116 colon
  GI50: < 1 nM and 261 nM
EKVX NSCLC
  GI50: 362 nM and 19 µM
MOLT-4 leukemia
  TGI: 12 nM and 350 nM
HOP-62 NSCLC
  GI50: < 1 nM and 190 nM
  TGI: 22.9 nM and 952 nM
BT-549 breast
  GI50: 1.83 µM and 32.8 nM
NCI/ADR-RES ovarian
  GI50: < 1 nM and 47 nM
OVCAR-5 ovarian
  GI50: < 1 nM and > 100 µM
786-0 renal
  GI50: < 1 nM and 255 nM
SNB-19 CNS
  GI50: < 1 nM and 1.66 µM
  TGI: 32.4 nM and > 100 µM
M14 melanoma
  GI50: < 1 nM and 261 nM
A498 renal
  GI50: 1.39 nM and 390 nM
  TGI: 7.71 nM and 17.1 µM
